# Assay results published in the supplement of paper PMC9174493.
# Counter-ions that a name gives are not always drawn. The list shows a part of the results. Single values of this set are uncertain. Values with irradiation are relative to irradiated vehicle.
# System: A549-Dual
# Assay: NF-kB reporter (SEAP) activity, viability-corrected, relative to vehicle (fold change vs vehicle); higher = more activation of STING-IRF / NF-kB immune response reporter
# Conditions: 10 µM; irradiation: none
# 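Note: viability correction based on the alamar blue assay, with concentrations leaving 10% survival or less dropped.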
row,Compound,NF-kB reporter
1,COC(=O)/C=C/C(=O)OC [Dimethyl Fumarate],0.68
2,Cc1cc(Nc2ncc(Cl)c(Nc3ccccc3S(=O)(=O)C(C)C)n2)c(OC(C)C)cc1C1CCNCC1 [Ceritinib (LDK378)],0.853
3,Nc1nc(Cl)nc2c1ncn2C1CC(O)C(CO)O1 (centres undefined) [Cladribine],3.17
4,CC12CCC(=O)C=C1CCC1C2C(O)CC2(C)C1CCC2(O)C(=O)CO (centres undefined) [Hydrocortisone],0.84
5,Cc1coc2c1C(=O)C(=O)c1c-2ccc2c(C)cccc12 [Tanshinone I],1.04
6,Cn1cnc([N+](=O)[O-])c1Sc1ncnc2nc[nH]c12 [Azathioprine],0.794
7,O=c1ccc2cc3ccoc3cc2o1 [Psoralen],0.816
8,CCC(=O)NS(=O)(=O)c1ccc(-c2c(-c3ccccc3)noc2C)cc1 [Parecoxib],0.97
9,COc1ccc(-c2ccc3cc(C(=O)O)ccc3c2)cc1C12CC3CC(CC(C3)C1)C2 [Adapalene],0.856
10,CCC(C(=O)O)c1ccc(N2Cc3ccccc3C2=O)cc1 (centres undefined) [Indobufen],0.876
11,COC1CC2CCC(C)C(O)(O2)C(=O)C(=O)N2CCCCC2C(=O)OC(C(C)CC2CCC(O)C(OC)C2)CC(=O)C(C)/C=C(\C)C(O)C(OC)C(=O)C(C)CC(C)/C=C/C=C/C=C/1C (centres undefined) [Rapamycin (Sirolimus)],1.22
12,COc1ccc(C2CNC(=O)C2)cc1OC1CCCC1 (centres undefined) [Rolipram],1.18
13,Nc1nc(N)c2nc(-c3ccccc3)c(N)nc2n1 [Triamterene],1.45
14,CN(C)CCN1C(=O)c2cccc3cc(N)cc(c23)C1=O [Amonafide],1.51
15,CN1CCCC1CCOC(C)(c1ccccc1)c1ccc(Cl)cc1.O=C(O)/C=C/C(=O)O (centres undefined) [Clemastine Fumarate],1.28
16,CC12C=CC(=O)C=C1CCC1C3CC(O)C(O)(C(=O)CO)C3(C)CC(O)C12F (centres undefined) [Triamcinolone],0.752
17,CC1CC2C3CCC4=CC(=O)C=CC4(C)C3C(=O)CC2(C)C1(O)C(=O)CO (centres undefined) [Meprednisone],1.04

row,Compound,NF-kB reporter
1,CCS(=O)(=O)O.COC(=O)c1ccc2c(c1)NC(=O)/C2=C(\Nc1ccc(N(C)C(=O)CN2CCN(C)CC2)cc1)c1ccccc1 [Nintedanib Ethanesulfonate Salt],1.47
2,CCCCCCCCCCCCCCCCCCOP(=O)([O-])OC1CC[N+](C)(C)CC1 [Perifosine (KRX-0401)],0.922
3,CCC1(O)CC2CN(CCc3c([nH]c4ccccc34)C(C(=O)OC)(c3cc4c(cc3OC)N(C=O)C3C(O)(C(=O)OC)C(OC(C)=O)C5(CC)C=CCN6CCC43C65)C2)C1 (centres undefined) [Vincristine],1.92
4,Cl.Nc1ccn(C2OC(CO)C(O)C2O)c(=O)n1 (centres undefined) [Cytarabine hydrochloride],1.45
5,CC(=O)OC(C)C(C)C(=O)OCC12C3CC4(C)C(=CCC5C6(C)CCC(OC7OC(C(=O)[O][Na])C(OC8OC(CO)C(O)C(O)C8O)C(O)C7OC7OCC(O)C(O)C7O)C(C)(CO)C6CCC54C)C1CC(C)(C)C(O3)C2O (centres undefined) [Sodium Aescinate],1.26
6,CCC(=O)OC1(C(=O)SCF)C(C)CC2C3CC(F)C4=CC(=O)C=CC4(C)C3(F)C(O)CC21C (centres undefined) [Fluticasone propionate],0.694
7,CCCCC1(COC(=O)CCC(=O)O)C(=O)N(c2ccccc2)N(c2ccccc2)C1=O [Suxibuzone],1.31
8,CS(=O)(=O)Nc1cc2occ(NC=O)c(=O)c2cc1Oc1ccccc1 [Iguratimod],0.742
9,COc1cc2nccc(Oc3ccc(NC(=O)Nc4cc(C)on4)c(Cl)c3)c2cc1OC [Tivozanib (AV-951)],0.737
10,Cc1ccc(S(=O)(=O)O)cc1.NC(=O)c1cccc2cn(-c3ccc(C4CCCNC4)cc3)nc12 (centres undefined) [Niraparib (MK-4827) tosylate],1.15
11,CC(C)OC(=O)CCC/C=C\CC1C(O)CC(O)C1CCC(O)CCc1ccccc1 (centres undefined) [Latanoprost],0.232
12,"O=c1[nH]cc(F)c(=O)[nH]1 [Fluorouracil (5-Fluoracil, 5-FU)]",1.14
13,CC1(C(=O)O)CCC2(C)CCC3(C)C(=CC(=O)C4C5(C)CCC(OC6OC(C(=O)O)C(O)C(O)C6OC6OC(C(=O)O)C(O)C(O)C6O)C(C)(C)C5CCC43C)C2C1.N.N (centres undefined) [Diammonium Glycyrrhizinate],1.11
14,"CC1(C)CCC(CN2CCN(c3ccc(C(=O)NS(=O)(=O)c4ccc(NCC5CCOCC5)c([N+](=O)[O-])c4)c(Oc4cnc5[nH]ccc5c4)c3)CC2)=C(c2ccc(Cl)cc2)C1 [Venetoclax (ABT-199, GDC-0199)]",0.985
15,CCN(CC)Cc1cc(Nc2ccnc3cc(Cl)ccc23)ccc1O.Cl.Cl [Amodiaquine hydrochloride],0.979
16,CCN(C(=O)c1c(O)c2c(Cl)cccc2n(C)c1=O)c1ccccc1 [Laquinimod],0.986
17,O=C(c1ccc(OCCN2CCCCC2)cc1)c1c(-c2ccc(O)cc2)sc2cc(O)ccc12 [Raloxifene],0.955
